Experimental data: PMC4336329 (PLoS ONE, 2015)
Among all 310,000 compounds or so, about 2,200 (0.71%) showed an effect of 50% or more. The effect is printed as a negative number. This is one part of the list.

molecular target: human ether-à-go-go-related gene (hERG) potassium channel (human, UniProt Q12809); test: primary screen, population patch clamp on CHO cells stably expressing hERG
Sequence (Q12809 whole entry, looked up): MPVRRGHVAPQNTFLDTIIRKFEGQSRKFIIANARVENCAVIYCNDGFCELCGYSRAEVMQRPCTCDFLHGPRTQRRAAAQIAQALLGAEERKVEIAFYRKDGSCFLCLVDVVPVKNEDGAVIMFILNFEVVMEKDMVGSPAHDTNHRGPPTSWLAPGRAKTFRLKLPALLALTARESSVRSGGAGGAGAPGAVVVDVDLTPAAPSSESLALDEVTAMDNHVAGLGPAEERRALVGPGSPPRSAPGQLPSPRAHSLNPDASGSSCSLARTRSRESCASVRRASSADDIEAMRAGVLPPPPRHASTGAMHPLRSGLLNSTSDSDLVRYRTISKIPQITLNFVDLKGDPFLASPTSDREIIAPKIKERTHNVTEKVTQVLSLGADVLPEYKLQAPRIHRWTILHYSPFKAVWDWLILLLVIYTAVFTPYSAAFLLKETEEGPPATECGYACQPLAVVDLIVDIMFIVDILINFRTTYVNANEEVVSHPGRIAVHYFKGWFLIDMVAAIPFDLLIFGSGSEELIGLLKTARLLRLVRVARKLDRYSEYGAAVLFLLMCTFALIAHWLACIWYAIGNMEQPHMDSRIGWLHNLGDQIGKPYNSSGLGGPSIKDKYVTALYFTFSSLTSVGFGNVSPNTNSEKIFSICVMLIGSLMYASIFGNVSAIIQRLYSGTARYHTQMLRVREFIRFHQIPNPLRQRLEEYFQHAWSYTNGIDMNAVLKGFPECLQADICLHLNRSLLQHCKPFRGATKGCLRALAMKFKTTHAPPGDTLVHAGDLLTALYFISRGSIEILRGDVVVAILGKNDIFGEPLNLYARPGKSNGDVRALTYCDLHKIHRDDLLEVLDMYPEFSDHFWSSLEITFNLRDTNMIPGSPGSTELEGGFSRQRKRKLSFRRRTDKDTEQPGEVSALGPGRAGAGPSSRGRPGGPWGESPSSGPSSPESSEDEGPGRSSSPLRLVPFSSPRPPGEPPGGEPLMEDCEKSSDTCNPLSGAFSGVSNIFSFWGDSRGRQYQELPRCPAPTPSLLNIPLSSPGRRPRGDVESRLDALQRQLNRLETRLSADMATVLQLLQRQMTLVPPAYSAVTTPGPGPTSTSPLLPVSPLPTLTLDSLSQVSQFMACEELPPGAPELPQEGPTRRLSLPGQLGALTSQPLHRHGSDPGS

Row | SMILES | hERG current change (%, negative = inhibition) at 1uM [%]
1 | Cc1c(C)c2ccc(OCC(=O)N3CCN(c4ccccc4)CC3)cc2oc1=O | -4.53
2 | CC(N)=Nc1ccc([N+](=O)[O-])cc1 | 14.5
3 | Cc1ccc([C@@H]2[C@@H]3C(=O)N(c4ccccc4)C(=O)[C@@H]3[C@]3(C)C(=O)N(Cc4ccccn4)CC(=O)N23)o1 | 11.1
4 | COc1ccc(OC)c(S(=O)(=O)N2CCC(C(=O)NCCc3ccccc3)CC2)c1 | 1.04
5 | COC(=O)CSc1nc2cc(OC)ccc2cc1C#N | 8.04
6 | CNC(=O)COc1coc(CN2CCN(c3ccccc3)CC2)cc1=O | 8.02
7 | CCOc1cc(S(=O)(=O)n2ccnc2)ccc1Br | 14.5
8 | Cc1cc(C)c(C(=O)Nc2cccc(F)c2)c(Cl)n1 | 5.53
9 | CCn1c(C)cc2c(c1=O)C(c1ccccc1Br)C(C#N)=C(N)O2 (stereo not drawn) | 8.2
10 | COc1ccc(N2CCOCC2)c(NC(=O)c2cc3ccccc3o2)c1 | 3.34
11 | Cc1ccc(-n2nc(C)c3c(C)onc3c2=O)cc1 | 10.6
12 | CCN(CCCNC(=O)CNC(=O)c1nn(-c2ccc(OC)cc2OC)c(=O)c2ccccc12)c1cccc(C)c1 | -0.562
13 | O=C(CCC(=O)OCc1ccc(C(=O)Oc2ccccc2)cc1)Nc1cccc2ccccc12 | 4.78
14 | O=S(=O)(NCCC1CC1(Cl)Cl)c1ccc(Cl)cc1 (stereo not drawn) | 5.55
15 | COC(=O)[C@H](C)NC(=O)Nc1cc(Cl)ccc1C | 5.35
16 | CC12CC[C@H]3[C@@H](CCC4(O)C[C@H](O)CCC34/C=N/NC(=O)c3ccccc3Cl)C1(O)CCC2C1=CC(=O)OC1 (stereo partly drawn) | 11.1
17 | Nc1ccc(-n2c(N)c(C(=O)NCc3ccc4c(c3)OCO4)c3nc4ccccc4nc32)cc1 | 11.6
18 | CCCCOC(=O)CSc1nnc(N)s1 | 3.2
19 | CCCC(=O)Nc1nnc(CCc2ccccc2)s1.Cl | 12.1

Row | SMILES | hERG current change (%, negative = inhibition) at 1uM [%]
20 | Cc1cccc(-n2c(CNC(=O)c3cccc([N+](=O)[O-])c3C)n[nH]c2=S)c1 | 21.9
21 | CC1(C)NC(=O)N(CC(=O)N2CCN(c3cccc(Cl)c3)CC2)C1=O | 6.12
22 | CCn1nc(NS(=O)(=O)c2ccc(NC(C)=O)cc2)c2cc3ccccc3nc21 | 14.3
23 | CSCCC(NC(=O)COc1ccccc1)C(=O)N1CC(C)CC(C)C1 (stereo not drawn) | 3.98
24 | COc1ccc(N2CCN(CCNC(=O)C3CC(=O)N(C4CCCC4)C3)CC2)cc1 (stereo not drawn) | 8.47
25 | Cc1ccc(C)c(C(=O)CCC(=O)NCc2ccc(Cl)cc2)c1 | 11.8
26 | COc1ccccc1CNC(=O)c1ccc(NS(=O)(=O)c2cccs2)cc1 | 8.66
27 | O=Cc1ccc(OCCOc2ccc([N+](=O)[O-])cc2)cc1 | 12.8
28 | CN(C(=O)COC(=O)/C=C/c1ccc2ccccc2n1)C1CCS(=O)(=O)C1 (stereo not drawn) | 12.9
29 | Cc1ccc(/C(N)=N/OC(=O)CN(C)S(=O)(=O)c2ccc(C)cc2)cc1 | 17.5
30 | Cc1ccc(NC(=O)c2cc(-c3ccco3)on2)cc1C | 18.1
31 | CCCCCn1c(=O)c2ccccc2n2c(CCl)nnc12 | -1.66
32 | O=c1cc(-c2ccccc2)c2ccc(O)cc2o1 | 5.92
33 | CCOCCCNC(=O)c1cc2c(=O)[nH]c3ccccc3c2s1 | 10.1
34 | CCOc1ccccc1N=Nc1c(C)[nH]n(C(N)=S)c1=O | 17.8
35 | O=c1[nH]c(=O)n(Cc2ccco2)c(O)c1C=NCCN1CCOCC1 | 16
36 | Cc1c(Cl)cc(-n2cnnn2)cc1[N+](=O)[O-] | 1.15
37 | O=C(COC(=O)CCC1CCCC1)Nc1ccc(F)cc1Cl | 5.5
38 | CN1C(=O)N(C)C2(c3ccccc3)NC(=O)NC12c1ccccc1 (stereo not drawn) | 11

Row | SMILES | hERG current change (%, negative = inhibition) at 1uM [%]
39 | CCOC(=O)C1CCN(S(=O)(=O)c2ccc(OC)c(Cl)c2Cl)CC1 | 3.11
40 | CC1CCN(c2ccccc2NC(=O)c2ccc(N3CCOCC3)c([N+](=O)[O-])c2)CC1 | -9.35
41 | CCOC(=O)c1cc2c(ccn2C)n1CC(=O)N1C(C)CCCC1C (stereo not drawn) | -1.86
42 | O=Cc1c(C(=O)O)n(Cc2ccccc2Cl)c2ccccc12 | 18.5
43 | CCOc1cc(NC(=O)c2ccccc2C)c(OCC)cc1NC(=O)C1=Cc2ccccc2OC1 | 9.16
44 | CC(=O)Nc1cc(C(=O)OCC(=O)c2ccccc2)ccc1C | 18.7
45 | O=C(COC(=O)c1ccc(NS(=O)(=O)c2cccs2)cc1)NCc1ccco1 | 9.44
46 | COC(=O)c1ccc2c(=O)n(CCCCCC(=O)NC(C)C)c(=O)[nH]c2c1 | -15.2
47 | CC(=O)c1cccc(NC(=O)c2ccc(N(C)S(C)(=O)=O)cc2)c1 | 9.32
48 | CC1Cc2ccccc2N1C(=O)COC(=O)c1ccccc1NCCO (stereo not drawn) | 12.2
49 | COc1cccc(OCc2cc(C(=O)N(Cc3ccccc3)CC3CC3)no2)c1 | 15.2
50 | COc1cccc(NC(=O)C2CCN(S(=O)(=O)c3ccc4c(c3)NC(=O)CO4)CC2)c1 | 13.5
51 | CNCc1cn2cc(Cl)ccc2n1 | 10.4
52 | COC(CSc1ncnc2c1oc1nc3c(cc12)COC(C)(C)C3)OC | -1.17
53 | CC(C)(C)NC(=O)COC(=O)CNC(=O)c1cc(Cl)cc([N+](=O)[O-])c1 | 16.5
54 | CN(C)c1ccncc1C(=O)Nc1ccc(F)cc1F | -0.0931
55 | CCC(C)NC(=O)COc1ccc(OCc2ccccc2)cc1 (stereo not drawn) | 15.5
56 | CC(=O)c1ccc(NC(=O)c2cc(CC(C)C)nc3ccccc23)cc1 | 12.1
57 | Clc1nc(Cl)nc(-c2cn(-c3ccccc3)c3ccccc23)n1 | 8.15
